{"source": "paper PMC4336329", "about": "(PLoS ONE, 2015)", "note": "Out of some 310,000 compounds screened, about 2,200 (0.71%) showed an effect of 50% or more. Effects have a minus sign here. The list shows a part of the results.", "data": [{"biological_target": "human ether-à-go-go-related gene (hERG) potassium channel (human, UniProt Q12809)", "sequence (Q12809 whole entry, looked up)": "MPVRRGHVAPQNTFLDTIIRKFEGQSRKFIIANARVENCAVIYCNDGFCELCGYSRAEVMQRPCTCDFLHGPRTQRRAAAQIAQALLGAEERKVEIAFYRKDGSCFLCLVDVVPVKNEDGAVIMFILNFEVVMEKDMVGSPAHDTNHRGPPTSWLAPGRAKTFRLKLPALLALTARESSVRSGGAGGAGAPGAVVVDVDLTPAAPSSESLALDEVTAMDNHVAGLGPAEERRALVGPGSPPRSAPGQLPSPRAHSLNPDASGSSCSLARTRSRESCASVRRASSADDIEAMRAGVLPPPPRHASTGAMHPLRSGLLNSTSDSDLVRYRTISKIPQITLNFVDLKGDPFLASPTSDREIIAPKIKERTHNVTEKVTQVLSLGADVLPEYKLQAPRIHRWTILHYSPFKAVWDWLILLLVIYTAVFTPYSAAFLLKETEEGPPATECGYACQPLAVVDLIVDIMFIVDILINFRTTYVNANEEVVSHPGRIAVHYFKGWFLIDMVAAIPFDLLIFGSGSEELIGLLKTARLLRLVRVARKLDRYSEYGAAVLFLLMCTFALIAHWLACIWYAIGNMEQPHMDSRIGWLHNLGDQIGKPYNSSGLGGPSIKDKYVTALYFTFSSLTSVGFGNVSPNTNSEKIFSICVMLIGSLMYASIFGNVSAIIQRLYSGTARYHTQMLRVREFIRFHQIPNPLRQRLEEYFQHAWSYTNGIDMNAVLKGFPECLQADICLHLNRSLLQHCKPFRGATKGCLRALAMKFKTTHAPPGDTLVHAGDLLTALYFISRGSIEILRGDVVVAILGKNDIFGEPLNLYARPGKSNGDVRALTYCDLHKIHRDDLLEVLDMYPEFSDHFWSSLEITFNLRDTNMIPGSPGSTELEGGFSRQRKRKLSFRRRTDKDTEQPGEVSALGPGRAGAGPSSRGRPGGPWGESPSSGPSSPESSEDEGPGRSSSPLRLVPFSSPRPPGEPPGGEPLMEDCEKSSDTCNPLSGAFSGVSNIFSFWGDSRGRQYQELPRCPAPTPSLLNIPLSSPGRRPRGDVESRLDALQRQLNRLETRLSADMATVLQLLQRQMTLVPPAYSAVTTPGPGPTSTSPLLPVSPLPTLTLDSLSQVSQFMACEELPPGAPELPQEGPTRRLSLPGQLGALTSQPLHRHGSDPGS", "assay": "primary screen, population patch clamp on CHO cells stably expressing hERG", "units": {"hERG current change (%, negative = inhibition) at 1uM": "%"}, "values": [{"smiles": "Cc1cccc(N2CCN(C(=O)C3CCN(c4nnc(-n5cccc5)s4)CC3)CC2C)c1", "note": "(centres unmarked)", "hERG current change (%, negative = inhibition) at 1uM": -1.81}, {"smiles": "Cc1csc(SC(C)C(=O)Nc2ccccc2C)n1", "note": "(centres unmarked)", "hERG current change (%, negative = inhibition) at 1uM": 0.187}, {"smiles": "CCCCNC(=S)N(C)/N=C/c1sc(N2CCCCC2)nc1-c1cccs1", "hERG current change (%, negative = inhibition) at 1uM": 14.6}, {"smiles": "CCOc1ccccc1NC(=O)Cn1c(=O)sc2ccccc21", "hERG current change (%, negative = inhibition) at 1uM": 2.95}, {"smiles": "O=C(Oc1ccc([N+](=O)[O-])cc1)c1cccnc1", "hERG current change (%, negative = inhibition) at 1uM": 13.1}, {"smiles": "Cc1ccc(S(=O)(=O)N=S(CCO)CCO)cc1", "hERG current change (%, negative = inhibition) at 1uM": -0.757}, {"smiles": "Cc1ccc(Sc2cnn(-c3ccccc3)c(=O)c2Cl)cc1", "hERG current change (%, negative = inhibition) at 1uM": 20.3}, {"smiles": "Cc1cc(C)c(OCC(=O)OCC(=O)N2CCN(C(=O)c3ccco3)CC2)c(C)c1", "hERG current change (%, negative = inhibition) at 1uM": 11.2}, {"smiles": "O=C(Oc1ccc2cc(Br)ccc2c1)N1CCCCCC1", "hERG current change (%, negative = inhibition) at 1uM": 14}, {"smiles": "O=C(N/N=C/c1c(O)n(Cc2ccccc2)c(=O)[nH]c1=O)c1ccccc1O", "hERG current change (%, negative = inhibition) at 1uM": -3.24}, {"smiles": "CNc1ccc(Oc2c(F)c(F)nc(F)c2F)cc1", "hERG current change (%, negative = inhibition) at 1uM": 8.81}, {"smiles": "CC(C)COc1ccc(C(=O)N/C(=C/c2cccc([N+](=O)[O-])c2)C(=O)O)cc1", "hERG current change (%, negative = inhibition) at 1uM": 17.3}, {"smiles": "O=C(NC1CCCCC1)C(c1ccncc1)N(C(=O)Cn1nnc(-c2cccs2)n1)C1CCCC1", "note": "(centres unmarked)", "hERG current change (%, negative = inhibition) at 1uM": -4.68}, {"smiles": "COc1ccc(CNc2ccc3c(c2)CCC3)cc1OC", "hERG current change (%, negative = inhibition) at 1uM": 11.9}, {"smiles": "O=C(COC(=O)c1cccc(-n2cnnn2)c1)c1ccccc1", "hERG current change (%, negative = inhibition) at 1uM": 3.78}, {"smiles": "O=C(NCCS(=O)(=O)c1ccc(Br)cc1)c1ccc(Cl)cc1Cl", "hERG current change (%, negative = inhibition) at 1uM": 3.11}, {"smiles": "COc1ccccc1N1CCN(C(=O)C2CCCCN2S(=O)(=O)c2ccc(C)cc2)CC1.Cl", "note": "(centres unmarked)", "hERG current change (%, negative = inhibition) at 1uM": 7.9}, {"smiles": "Cc1ccc(NNC(=O)c2cc(C(C)(C)C)nn2Cc2ccccc2)cc1", "hERG current change (%, negative = inhibition) at 1uM": 9.25}, {"smiles": "Nc1nc(NCc2ccco2)nc(N2CCCCC2)c1[N+](=O)[O-]", "hERG current change (%, negative = inhibition) at 1uM": 9.61}, {"smiles": "CCCCn1c(N)c(N(CCC(C)C)C(=O)c2cc(S(=O)(=O)N3CCOCC3)ccc2F)c(=O)[nH]c1=O", "hERG current change (%, negative = inhibition) at 1uM": 14}, {"smiles": "CCCCN(C(=O)CSCC(=O)Nc1cccc(C)c1)c1c(N)n(CCCC)c(=O)[nH]c1=O", "hERG current change (%, negative = inhibition) at 1uM": 5.9}, {"smiles": "CN(CC(=O)NC1CCCCC1)S(=O)(=O)c1cccc2cccnc12", "hERG current change (%, negative = inhibition) at 1uM": 2.48}, {"smiles": "O=C(c1ccc(NS(=O)(=O)c2ccc3[nH]c(=O)[nH]c3c2)cc1)N1CCN(c2ccccc2)CC1", "hERG current change (%, negative = inhibition) at 1uM": 13}, {"smiles": "O=c1c(C=NCc2ccccc2)c(NCc2ccccc2)nc2ccccn12", "hERG current change (%, negative = inhibition) at 1uM": 7.25}, {"smiles": "COc1ccc(NC(=O)c2ccccc2N(Cc2ccccc2)S(C)(=O)=O)c(OC)c1", "hERG current change (%, negative = inhibition) at 1uM": 9.9}, {"smiles": "O=C(CCCCl)OCc1cn(-c2ccc(Cl)cc2)nn1", "hERG current change (%, negative = inhibition) at 1uM": 6.16}, {"smiles": "CCc1ccc(NC(=S)/N=C(\\N)Nc2nc(C)c3cc(CC)ccc3n2)cc1", "hERG current change (%, negative = inhibition) at 1uM": 10.6}, {"smiles": "CCn1cc(CN2CCC(n3nccc3NC(=O)c3ccccc3C)CC2)c(C)n1", "hERG current change (%, negative = inhibition) at 1uM": -11.9}, {"smiles": "O=C(/C=C/c1ccc2c(c1)OCO2)Nc1nncs1", "hERG current change (%, negative = inhibition) at 1uM": 10.4}, {"smiles": "CC(C)CC(=O)NC(=S)Nc1cc(C(=O)O)ccc1Cl", "hERG current change (%, negative = inhibition) at 1uM": 6.17}, {"smiles": "COc1ccc(OC)c(N(CC(=O)Nc2ccccc2)S(=O)(=O)c2ccccc2)c1", "hERG current change (%, negative = inhibition) at 1uM": 8.92}, {"smiles": "COc1ccccc1Nc1nc(=O)[nH]nc1C", "hERG current change (%, negative = inhibition) at 1uM": 12.7}, {"smiles": "COc1cccc(NC(=O)CNC(=O)c2ccc(OC)c(OC)c2)c1", "hERG current change (%, negative = inhibition) at 1uM": 12.4}, {"smiles": "COc1ccc(-c2nn(-c3ccccc3)cc2/C=C2/SC(=S)N(CCC(=O)O)C2=O)c(C)c1", "hERG current change (%, negative = inhibition) at 1uM": 11.6}, {"smiles": "CCOC(=O)c1cc2ccc(OC(=O)c3ccco3)cc2oc1=O", "hERG current change (%, negative = inhibition) at 1uM": -0.127}, {"smiles": "O=C(CCN1C(=O)C2C3CCC(C3)C2C1=O)OCC(=O)c1ccc(Cl)cc1", "note": "(centres unmarked)", "hERG current change (%, negative = inhibition) at 1uM": -8.5}, {"smiles": "Cc1ccc(C)c(NC(=O)CSc2nnc([C@@H]3CCCN3C(=O)OC(C)(C)C)o2)c1", "hERG current change (%, negative = inhibition) at 1uM": 9.85}, {"smiles": "CC(C)C(NS(=O)(=O)c1cccc2nsnc12)C(=O)NCc1ccc2c(c1)OCO2", "note": "(centres unmarked)", "hERG current change (%, negative = inhibition) at 1uM": 4.42}, {"smiles": "CCOc1ccccc1N1C(=O)NC(=O)C(CCc2ccncc2)(CCc2ccncc2)C1=O", "hERG current change (%, negative = inhibition) at 1uM": -4.16}, {"smiles": "COC(=O)[C@H](C)NC(=O)Nc1cccc(C(F)(F)F)c1", "hERG current change (%, negative = inhibition) at 1uM": -6.44}, {"smiles": "COc1ccc2c(c1)[N+](C)(C)C(C)(C)C=C2C.[I-]", "hERG current change (%, negative = inhibition) at 1uM": 10.4}, {"smiles": "Cc1ccc(-c2nc(C(=O)NCC3CCCO3)cc3c2[nH]c2ccccc23)cc1", "note": "(centres unmarked)", "hERG current change (%, negative = inhibition) at 1uM": 1.39}, {"smiles": "CCOC(=O)c1csc(CCNC(=O)c2oc3c(Cl)cc(C)cc3c2C)n1", "hERG current change (%, negative = inhibition) at 1uM": 14.9}, {"smiles": "O=C(N/N=C/c1cc(Cl)cc([N+](=O)[O-])c1O)C1CC1", "hERG current change (%, negative = inhibition) at 1uM": 3.83}]}]}
